Read counts are not given, so values of variants with three or more changes are uncertain.
B1: CPEB3 Ribozyme (parent)
chain: UAACAGGGGGCCACAGCAGAAGCGUUCACGUCGCAGCCCCUGUCAGAUUCUGGUGAAUCUGCGAAUUCUGCUGUAUAUCUC

Variants of: B1
Test: self-cleavage, relative activity (ratio to wild type); higher = more cleavage; in vitro, sequencing
Procedure, shortened: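 Relative activity was defined as the cleaved/total read fraction for a variant divided by the same fraction for the unmutated ribozyme. CPEB3 self-cleaving ribozyme libraries were made by rounds of error-prone PCR, barcoded, and transcribed in vitro with T7 RNA polymerase for 5 hours at 37°C, and cleavage ran through transcription plus a 15 min DNase I step before EDTA. Illumina sequencing of template-switched reverse transcripts gave the reads, and DNA sequencing mapped the barcodes. Averages come from three batches, using variants with at least 5 reads.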

Row | Variant | self-cleavage
1 | UAACAGGGGGCCACGGCAGAAGCGUUCACGUCGCAGCCCCUGUCAGAUCCUGGUGAAUCUGCGAAUUCUGCUGUAUUCCUC | 0.19
2 | UAACAGGGGGCCACGGCAGAAGCGUUCACGUCGCAGCCCCUGUCAGAUUCAGGUGAUUCUGCGAAUUCUGCUGUAUAUCUC | 0.47
3 | UAACAGGGGGCCACGGCAGAAGCGUUCACGUCGCAGCCCCUGUCAGAUUCAGGUGAAUCUGCGAAAUCUGCUGUAUAUCUC | 0.31
4 | UAACAGGGGGCCACGGCAGAAGCGUUCACGUCGCAGCCCCUGUCAGAUUCCGGCGAAUCUACGAAUUCUGCUACAUAUCCC | 0.61
5 | UAACAGGGGGCCACGGCAGAAGCGUUCACGUCGCAGCCCCUGUCAGAUUCUGGCGGAUCUGCGAACUCUGCUGUAUAUCUC | 0.22
6 | UAACAGGGGGCCACGGCAGAAGCGUUCACGUCGCAGCCCCUGUCAGAUUCUGGCGGAUCUGCGAAUUCUGCUGUAUACCUC | 0.43
7 | UAACAGGGGGCCACGGCAGAAGCGUUCACGUCGCAGCCCCUGUCAGAUUCUGGCGAAUCUGCGAAUUCCGCGGUAUAUCUC | 0.16
8 | UAACAGGGGGCCACGGCAGAAGCGUUCACGUCGCAGCCCCUGUCAGAUUCUGGUGAACCUGCGGAUUCAGCUGUAUAUCUC | 0.35
9 | UAACAGGGGGCCACGGCAGAAGCGUUCACGUCGCAGCCCCUGUCAGAUUCUGGUGAAUCCGCGAACUCUGCUGUAUAUCCC | 0.16
10 | UAACAGGGGGCCACGGCAGAAGCGUUCACGUCGCAGCCCCUGUCAGAUUCUGGUGAAUCGGCGAAUUCUGCUGUAUUUCUC | 0.25
11 | UAACAGGGGGCCACGGCAGAAGCGUUCACGUCGCAGCCCCUGUCAGAUUCUGGUGAAUCUGCGAAUACUGCUGUAUGUAUC | 0.51
12 | UAACAGGGGGCCACGGCAGAAGCGUUCACGUCGCAGCCCCUGUCAGAUUCUGGUGAAUCUGCGAAUCCUGCUGUAUACCUC | 0.16
13 | UAACAGGGGGCCACGGCAGAAGCGUUCACGUCGCAGCCCCUGUCAGAUUCUGGUGAAUCUGCGAAUUCCGCUGUGUACCUC | 0.13
14 | UAACAGGGGGCCACGGCAGAAGCGUUCACGUCGCAGCCCCUGUCAGAUUCUGGUGAAUCUGCGAAUUCUGCAGUAUAUCUA | 0.7
15 | UAACAGGGGGCCACUGCCGAAGCGUACACGUCGCAGCCCCUGUCAGAUUCUGGUGAAUCUGCGGAUUCUGCUGUAUAUCAC | 0.19
16 | UAACAGGGGGCCACUGCGGAAGCGUUCGCGUCGCAGCCCCUGUCAGAUUCUGGUGAAUCUGCGAAUUCUGCUGUAUAUCCC | 0.26
17 | UAACAGGGGGCCACUGCGGAAGCGUUCACGUCGCUGCCCCCGCCAGAUUCUGGUGAAUCUGCGAAUUCCGCUGUAUAUCUC | 0.29
18 | UAACAGGGGGCCACUGCGGAAGCGUUCACGUCGCAGCCCCUGUCAGAUUCUGGUGGUUCUGCGAAUUCUGCUGUAUAUCAC | 0.23
19 | UAACAGGGGGCCACUGCGGAAGCGUUCACGUAGCGGACCCUGUCAGAUUCUGGUGAAUCUGCGAAUUCUGCUGUAUAUCUC | 0.05
20 | UAACAGGGGGCCACUGCGAAAGCGUUCGCGUCGCAGCCCCUGUCUGAUUCUGGUGAAUCUGCGAAUUCUGCUGAAUAUCUC | 0.08
21 | UAACAGGGGGCCACUGCGGAAGCAUUCGCGUCGCAGCCCCUGUCAGAUUCUGGUGAAUCUGCGAAUUCUGCUGUAUAUCUC | 0.2
22 | UAACAGGGGGCCACUGCGGAAGCGCUCACGUCGCAGCCCCUGUCAGAUUCUGGUGAAUCUGCGGAUUCUGCUGUAUAUCUC | 0.24
23 | UAACAGGGGGCCACUGCGGAAGCGCUCACGUCGCAGCCCCUGUCAGAUUCUGGUGAAACUGCGAAUUCUGCAGUAUAUCUC | 0.07

Row | Variant | self-cleavage
24 | UAACAGGGGGCCACUGCGGAAGCGUUCACGUCGCAGCCCCUGCCAGAUUCUGGUGAAUCUGCGAAUUCCGCUGUAUAUCUC | 0.41
25 | UAACAGGGGGCCACUGCGGAAGCGUUCACGUCGCAGCCCCUGUCAGAUUCUGGUGAAUCUGCGAAUUCUGCAGUAUACCUC | 0.41
26 | UAACAGGGGGCCACUGCUGCAGCGUUCGCGUCGCAGCCCCUGUCAGAUUCUGGUGAAUCUGCGAAUUCUGCUGUAUAUCUC | 0.28
27 | UAACAGGGGGCCACUGCUGAAGCGUUCACGUCGCCGCCCCUGUCAGAUUCCGGUGAAUCAGCGGAUUCUGCUGUAUAUCUC | 0.15
28 | UAACAGGGGGCCACUGCUGAAGCGUUCACGUCGCGGCCCCAGUCAGAUUCUGGUGGAUCUGCGAAUUCUGCUGUAUAUCUC | 0.31
29 | UAACAGGGGGCCACUGCUGAAGCGUUCACGUCGCAGCCCUUGUCAUAUUCUGGCGAAUCUGCGAAUUCUGCUGCAUUUCUC | 0.02
30 | UAACAGGGGGCCACUGCUGAAGCGGUCGCGUCGCAGCCCCUGUCAGAUUCUGGUGGAUCUGCGAAAUCUGCUGUAUAUCUC | 0.06
31 | UAACAGGGGGCCACUGCUGAAGCGUUCACGCCGCAGCCCCUGUCAGAUUCUGGAGGAACUGCGAAUUCUGCUGUAUAUCUC | 0.11
32 | UAACAGGGGGCCACUGCAGGAGCGUUCACGUCGCAGCCCCUGUCAGAUUCUGGUGAAUCUGCGAUUUCUGCUGUAUAUCUC | 0.08
33 | UAACAGGGGGCCACUGCAGGAGAGUUCACGUCGCAGCCCCUGUCAGAUUCUGGUGGAUCUGCGAAUUCUGCUGUAUAUCCC | 0.08
34 | UAACAGGGGGCCACUGCAGGAGCGUUCAUGUCGCAGCCCCUGUCAGAUUCUGGUGAAUCUGCGAAUUCUGCUGUAUGUCUC | 0.43
35 | UAACAGGGGGCCACUGCAGGAGCGUUCACGUCGCAGCCACUGCCAGAUUCUGGUGAAUCUGCGAAUUCUGCUGUAUAUCUC | 0.36
36 | UAACAGGGGGCCACUGCAGGAGCGUUCACGUCGCAGCCCAUGUCAGAUUCUGGUGGAUCUGCGGAUUCUGCUGUUUACCUC | 0.06
37 | UAACAGGGGGCCACUGCAGGAGCGUUCACGUCGCAGCCCCUGUCAGAUUCUGGUGAAUCUGUGAAUUCAGCUGUAUAUCUC | 0.08
38 | UAACAGGGGGCCACUGCAGGACCGUUCACGUCGCAGCCCCUGUCAGAUUCUGGUGAAUCUGCGAAUUCUGCUGUAUAUCUC | 0.22
39 | UAACAGGGGGCCACUGCAGGAGCGUUCACGACGCAGCCCCUGUCAGAUUCUGGUGAAUCUGCGAAUUCUGCAGUAUGUCUC | 0.29
40 | UAACAGGGGGCCACUGCAGGAGCGUUCACGUCGCAGCCCCUGUCAGAUUCUGGCGAAUCUGCGAAUUCAGCUGCAAAUCUC | 0.26
41 | UAACAGGGGGCCACUGCAGGAGCGUUCACGUCGCAGCCCCUGUCAGAUUCUGGUGAAUCUGCGAAUUCUGCUGCAUAUCUC | 0.57
42 | UAACAGGGGGCCACUGCAGGAGCGUUCACGUCGCAGCCCCUGUCAGAUUCUGGUGAAUCUGCGAAUUCUGCUGUAUAUCAC | 0.25
43 | UAACAGGGGGCCACUGCAGUAGCGUUCACGUCGCAGCCCCUGUCAGAUUCUGGUGAAUCUGCGAAUUCUGCCGUAUGUCUC | 0.18
44 | UAACAGGGGGCCACUGCAGAGGCGUUCACGUCGCAGCCCCUGUCAGAUUCUGGUGAAUCUGCGAAUUCUGCUGUAUGUCCC | 0.31
45 | UAACAGGGGGCCACUGCAGAGGCGUUCACGUCGCAGCCCCUGUCAGAUUCUGGUGAAUCUGCGAAUUGUGCUGUAUAUCUC | 0.17
46 | UAACAGGGGGCCACUGCAGAGGCGUUCACACCGCAGCCCCUGUCAGAUUCCGGUGAAUCUGCGAAUUCUGCUGUAUAUCUC | 0.23

Row | Variant | self-cleavage
47 | UAACAGGGGGCCACUGCAGAGGCGUUCACGUCGCAGCCCCUGUCAUAUUCUGGUGAAUCUGCGAAUUCUGCUGUAUACCUC | 0.08
48 | UAACAGGGGGCCACUGCAGAGGCGUCCACGUCGCAGCCCCUGCCAGAUUCUGGUGAAUCUGCGAAUUCUGCCGUAUAUCUC | 0.21
49 | UAACAGGGGGCCACUGCAGAGGCGUUCACGACGCAGCCCCUGUCAGAUUCUGGUGAAUCUGCGGAUUCUGCUGUAUAUCUC | 0.27
50 | UAACAGGGGGCCACUGCAGAGGCGUUCACGUCGCAGCCCCAGUCAGAUUCUGGUGAAUCUGCGAAUGCUGCUGUAUAUCUC | 0.12
51 | UAACAGGGGGCCACUGCAGAGGCGUUCACGUCGCAGCCCCCGUCAGAUUCUGGUGAACCUGCGAAUUCUGCUGUAUAUCUC | 0.43
52 | UAACAGGGGGCCACUGCAGAGGCGUUCACGUCGCAGCCCCUGUCAGAAUCGGGUGAAUCUGCGAAAUCUGCUGUAUAUCAC | 0.06
53 | UAACAGGGGGCCACUGCAGAGGCGUUCACGUCGCAGCCCCUGUCAGACUCUGGUGAAUCUGCGAAUUCUGCUGUAUAUCUC | 0.16
54 | UAACAGGGGGCCACUGCAGAGGCGUUCACGUCGCAGCCCCUGUCAGAUUCUGGUGAACCUGCGAAUUCUGCUGUAUAUCUC | 0.09
55 | UAACAGGGGGCCACUGCAGAGGCGUUCACGUCGCAGCCCCUGUCAGAUUCUGGUGAAUCAGCGAAUUCUGCUGUAUAUCUC | 0.21
56 | UAACAGGGGGCCACUGCAGAUGCGUUCACGUCGCAGCCCCUGCCCGAUUCAGGUGAAUCUGCGAAUCCUACUGUAUAUCUC | 0.06
57 | UAACAGGGGGCCACUGCAGAUGCGUUCACGUCGCAGCCCCUGUCAGAUCCUGGUGAAUCUGCGAAUUCUGCUGUAUAUCUC | 0.31
58 | UAACAGGGGGCCACUGCAGAAGCGUUCCCGGCGCAGCCCCUGUCAGUUUCUGGUGAAUCUGCGAAUUCUGCUGUUUAUCUC | 0.04
59 | UAACAGGGGGCCACUGCAGAAGCGUUCCCGUCGCAGCCCCUGUCAGAUACUGGUGAAACUGCGAUUUCUGCUGUAUAUCUC | 0.08
60 | UAACAGGGGGCCACUGCAGAAGCGUUCGCGUCGCAGCCCCUGUCCGAUUCUGGUGAAUCUGCGAAUUCUGCUGUAUAUCUC | 0.24
61 | UAACAGGGGGCCACUGCAGAAGCGUUCGCGUCGUAGCCCCUGACAGAUUCUGGUGAAUCUGCAAAUUCAGCUGUAUAUCUC | 0.04
62 | UAACAGGGGGCCACUGCAGAAGCGUUCGCGUCGCAGCCCCUGUCAGAUUCUGGUGAAUCUGCGAAUUCUGAUGAUUAUCUC | 0.11
63 | UAACAGGGGGCCACUGCAGAAGCGUUCGCGCCGCAGCCCCUGUCAGAUUCUGGUGAAUCUGCGAAUUCUGCUGUAUAUCUC | 0.48
64 | UAACAGGGGGCCACUGCAGAAGCGUUCGCGUCGCAGCCCCAGUCAGAUUCAGGUGAACCUGCGAAUUCUGCUGUAUAUCUC | 0.12
65 | UAACAGGGGGCCACUGCAGAAGCGUUCGCGUCGCAGCCCCCGUCAGAUUCUGGUGAAUCUGCGAAUUCUGCUGUAUGUCUC | 0.28
66 | UAACAGGGGGCCACUGCAGAAGCGUUCGCGUCGCAGCCCCUGUCAGAUUCUGGUGAAUCUGCGAAUUCUGCAGUCUACCUC | 0.59
67 | UAACAGGGGGCCACUGCAGAAGCGUUCGCGUCGCAGCCCCUGUCAGAUUCUGGUGAAUCUGCGAAUUCUGCUGCUUAUCUC | 0.16
68 | UAACAGGGGGCCACUGCAGAAGCGUUCUCGUCGCAGCCCCUGUCAGAUUCUGGUGAAUCUGCGUAUUCCGCUGUAUAUCUC | 0.18
